Test results published in PubChem BioAssay AID2147 (National Center for Advancing Translational Sciences (NCATS), 2009).
Several values for one entry are separate records, joined by “and”; a condition that tells them apart may be missing. Equal values may be shown once. Screen size: about 230,000 compounds; about 3,600 (1.6%) were called active. The inconclusive results got no clear call from the source; some entries with a clear call stand among them for comparison. Calls follow the shape of the dose curve; as a rule, active = well fitted inhibition curve with a large enough effect (not every such curve was filed as active); inconclusive = small, poorly fitted or top-dose-only effect, or another doubt; inactive = no such curve, though single readings can be large or run the other way. Where the call is inconclusive, the potency comes from a doubtful curve fit.

These molecules were tested against Lysine-specific demethylase 4E (Homo sapiens) (UniProt B2RXH2) (assay: qHTS Assay for Inhibitors of Human Jumonji Domain Containing 2E (JMJD2E)). Settings: JMJD2E catalytic domain, FDH-coupled NADH fluorescence (FDH is formaldehyde dehydrogenase); series mostly up to 57.1 µM.
UniProt B2RXH2, sequence (B2RXH2 whole entry, looked up, the tested form may be a part): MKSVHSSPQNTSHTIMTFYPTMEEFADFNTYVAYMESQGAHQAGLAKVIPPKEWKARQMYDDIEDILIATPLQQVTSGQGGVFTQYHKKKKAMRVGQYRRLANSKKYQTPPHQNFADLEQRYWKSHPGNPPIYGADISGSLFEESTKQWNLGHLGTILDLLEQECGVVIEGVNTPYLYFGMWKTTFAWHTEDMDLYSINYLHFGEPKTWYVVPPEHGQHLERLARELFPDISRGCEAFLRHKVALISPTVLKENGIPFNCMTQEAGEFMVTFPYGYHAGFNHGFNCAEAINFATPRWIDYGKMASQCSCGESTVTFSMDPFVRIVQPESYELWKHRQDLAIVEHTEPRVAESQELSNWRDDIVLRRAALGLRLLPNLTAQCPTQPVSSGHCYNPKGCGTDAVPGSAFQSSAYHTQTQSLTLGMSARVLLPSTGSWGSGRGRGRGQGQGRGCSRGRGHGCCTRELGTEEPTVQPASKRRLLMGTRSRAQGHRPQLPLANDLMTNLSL
Also: nearly all actives have a fitted effect of over 50% in size.
Potency is read from the fitted curve at half-maximal effect; tags tell the direction and shape of the fitted curve.

Structure (SMILES)	Potency
Cc1ccc2c(c1)sc(C)[n+]2CCCS(=O)(=O)[O-]	inactive
CNc1ccc(Br)cc(C(=O)/C=C/c2ccc(Cl)cc2Cl)c1=O	inconclusive: 14.1 µM [inhibitor, partial curve]
CCC(C)NC(=O)c1cnn2c(C)c3c(nc12)CCCC3 (stereo not given)	inconclusive: 31.6 µM [inhibitor, partial curve]
CC(O)C(NS(=O)(=O)c1ccc(Cl)cc1)C(=O)OCC(=O)c1c[nH]c2ccccc12 (stereo not given)	inactive
COc1cc2c(cc1NC(=O)C1CCCO1)oc1ccccc12 (stereo not given)	inconclusive: 39.8 µM [inhibitor, single point]
COC(=O)Cn1cc(/C=N/NC(=O)c2ccc(C#N)cc2F)c2ccccc21	inactive
O=c1c(=Nc2ccccc2O)c(=O)c2ccccc12	inactive
CC(=O)Nc1ccc(-c2cc(N)n(-c3ccccc3)n2)cc1	inconclusive: 28.2 µM [inhibitor, single point]
COc1ccc(/C=N/Nc2nc3ccccc3[nH]2)c(OC)c1OC	inconclusive: 35.5 µM [inhibitor, single point]
Cc1ccc2cc(CN(C(=O)c3ccncc3)C(C)C)c(=O)[nH]c2c1	inconclusive: 39.8 µM [inhibitor, single point]
COc1cc(C)c2c(c1C=O)Oc1c(c(C)c(O)c3c1C(O)OC3=O)OC2=O (stereo not given)	inactive and inconclusive: 22.4 µM [inhibitor, single point]
CCCC(=O)OCC(=O)Nc1cc([N+](=O)[O-])ccc1OC	inactive
Cn1c2ccccc2c2c(C(=O)NCCCN3CCCC3=O)cn(C3CCCCC3)c(=O)c21	inconclusive: 31.6 µM [inhibitor, partial curve]
COc1ccc2c(c1)oc(=O)c1cc(OC)ccc12	inconclusive: 28.2 µM [inhibitor, partial curve]
CCCn1c(SCC(=O)N2N=C3/C(=C/c4ccc(OC)cc4)CCCC3C2c2ccc(OC)cc2)n[nH]c1=O (stereo not given)	inconclusive: 35.5 µM [inhibitor, single point]
Cc1cccn2cc(-c3ccc(F)cc3)cc12	inconclusive: 31.6 µM [inhibitor, partial curve]
C/C(=C/c1oc2ccc(O)cc2c1[N+](=O)[O-])N(C)C	inconclusive: 35.5 µM [inhibitor, single point]
O=C(CCCCCCCC(=O)c1ccccc1)c1ccccc1	inactive
COc1cc(OC)c(S(=O)(=O)Nc2ccccc2N2CCOCC2)cc1NC(C)=O	inactive
CCc1ccc(N=CC2=C(O)CC(c3ccco3)CC2=O)cc1 (stereo not given)	inconclusive: 39.8 µM [inhibitor, single point]
Cc1ccc(S(=O)(=O)C(C#N)c2nc3ccccc3nc2N2CCCC2)cc1 (stereo not given)	inconclusive: 6.31 µM [inhibitor, single point]
COC(=O)c1ccc(-c2nc3ccccc3[nH]2)cc1	inconclusive: 14.1 µM [inhibitor, partial curve]

Structure (SMILES)	Potency
CC(=O)c1ccc(/C=C/c2nc3ccccc3n2C)o1	inconclusive: 28.2 µM [inhibitor, partial curve]
O=C(NC1CCCc2ccccc21)C12CC3CC(CC(O)(C3)C1)C2 (stereo not given)	inconclusive: 39.8 µM [inhibitor, single point]
CCc1ccc(OCC(=O)N/N=C(\C)c2ccc(O)cc2O)cc1	inconclusive: 35.5 µM [inhibitor, single point]
COc1ccc(-c2cnnn2-c2ccc(NC(=O)c3ccc(S(=O)(=O)N4CCCCC4)cc3)cc2)cc1	inconclusive: 28.2 µM [inhibitor, single point]
CCC(C)[C@H](NC(=O)NCCC1=CCCCC1)C(=O)OC (stereo not given in full)	inconclusive: 39.8 µM [inhibitor, single point]
CC(=O)c1cc2c(cc1N/C(=N/S(=O)(=O)c1ccc(Br)cc1)c1ccccc1)OCO2	inconclusive: 14.1 µM [inhibitor, partial curve]
Cc1nn(-c2ccc(F)cc2)c2sc(C(=O)OC3CCOC3=O)cc12 (stereo not given)	inconclusive: 31.6 µM [inhibitor, partial curve]
COc1cccc(/C=N/n2c(N)c(S(=O)(=O)c3cccs3)c3nc4ccccc4nc32)c1	inconclusive: 0.708 µM [inhibitor, full curve]
Cc1ccc(-c2ccc(NC(=O)C3C4C=CC(C4)C3C(=O)O)cc2)o1 (stereo not given)	inconclusive: 31.6 µM [inhibitor, partial curve]
CCCN(Cc1cc2cc(OC)ccc2[nH]c1=O)C(=O)c1ccncc1	inconclusive: 31.6 µM [inhibitor, partial curve]
N#CCSc1ccsc1C(=O)Nc1ccc(F)cc1	inconclusive: 35.5 µM [inhibitor, single point]
Cc1cc(C)nc(-n2ncc3c2CC(c2ccccc2)CC3=O)n1 (stereo not given)	inactive
C=CC1=C2C=C(C3CC3)N(CCN3CCOCC3)C=C2C(=O)C(C)(OC(=O)c2ccco2)C1=O (stereo not given)	inconclusive: 7.08 µM [inhibitor, single point]
COC(=O)c1cc(C)[nH]c2c(C)cc3nc4ccccc4c3c12	inconclusive: 28.2 µM [inhibitor, partial curve]
Cc1ccc2nc(-c3ccccc3)cn2c1	inconclusive: 28.2 µM [inhibitor, partial curve]
Cc1cc(N/N=C/c2ccc3c(c2)OCO3)nc2ccccc12	inconclusive: 31.6 µM [inhibitor, partial curve]
CCOc1cccc2c1OC(c1cc(OC)c(OC)c(OC)c1)N1N=C(c3ccc(C)o3)CC21 (stereo not given)	inconclusive: 39.8 µM [inhibitor, single point]
O=C1OC(Nc2ccc(Cl)cn2)c2ccccc21 (stereo not given)	inconclusive: 35.5 µM [inhibitor, single point]
Cc1coc2c(C)c3oc(=O)c4c(c3cc12)CCCC4	inconclusive: 39.8 µM [inhibitor, single point]
Cc1[nH]c2ccccc2c1C(c1ccccn1)c1c(C)[nH]c2ccccc12	inconclusive: 35.5 µM [inhibitor, single point]
COc1ccc(OC)c(-n2c(C)ccc2-c2ccc(S(C)(=O)=O)cc2)c1	inconclusive: 28.2 µM [inhibitor, partial curve]
COC(=O)c1cccc(Nc2nc(-c3cccnc3)nc3ccccc23)c1	inconclusive: 35.5 µM [inhibitor, single point]

Structure (SMILES)	Potency
Cc1onc(-c2ccccc2)c1C(=O)Nc1nnc(N(C)Cc2ccccc2)s1	inconclusive: 35.5 µM [inhibitor, single point]
COc1ccc(NS(=O)(=O)c2cc(NC(=O)/C=C/c3cc(OC)ccc3OC)ccc2N2CCCCC2)cc1	inconclusive: 31.6 µM [inhibitor, partial curve]
Cc1ccccc1OCc1nnc(SCC(=O)Nc2ccc3c(c2)OCO3)n1C	inactive
C#CCn1c(=NC(=O)c2cc(Cl)sc2Cl)sc2cc(S(N)(=O)=O)ccc21	inconclusive: 5.01 µM [inhibitor, single point]
COc1ccc(C(=O)Nc2cccc(-c3ccc4nncn4n3)c2)cc1OC	inconclusive: 39.8 µM [inhibitor, single point]
Cc1nn(CCCC(=O)N2CCc3ccccc3C2)c(=O)c2cc3sccc3n12	inactive
COc1ccc2[nH]c(=O)c(CN(Cc3cccs3)Cc3nnnn3C(C)(C)C)cc2c1	inconclusive: 28.2 µM [inhibitor, single point]
O=C(NCc1csc(-c2cccs2)n1)Nc1ccc(F)cc1F	inconclusive: 35.5 µM [inhibitor, partial curve]
O=C(Nc1cccnc1Oc1ccc(Cl)cc1)c1cccc2ccccc12	inconclusive: 25.1 µM [inhibitor, single point]
COc1cc(CNC2CCCCCC2)cc(OC)c1OC	inconclusive: 28.2 µM [inhibitor, single point]
COC(=O)c1nc(-c2ccc(C)cc2)oc1N(C)C	inconclusive: 14.1 µM [inhibitor, partial curve]
COc1ccc(-n2nnnc2SCC(=O)NCCc2ccccc2)cc1OC	inactive
Cc1cc(C)c2cc(CN(CCO)Cc3nnnn3Cc3ccc(F)cc3)c(=O)[nH]c2c1	inconclusive: 39.8 µM [inhibitor, single point]
CCOc1cccc(=O)c2c(C)n(CC3CCCO3)c(C)c12 (stereo not given)	inconclusive: 14.1 µM [inhibitor, partial curve]
COC(=O)c1[nH]c2ccccc2c1NC(=O)CN1CCN(C(=O)c2ccco2)CC1	inconclusive: 35.5 µM [inhibitor, single point]
CCOc1ccc(NC(=O)Cn2cc(C(=O)c3ccco3)c3ccccc32)cc1	inconclusive: 39.8 µM [inhibitor, single point]
CCOC(=O)C1=CN(C)C=C(C(=O)OCC)C1c1ccsc1	inconclusive: 17.8 µM [inhibitor, partial curve]
O=C(O)c1ccc(/C=N/N2CCN(Cc3ccc(Cl)cc3)CC2)cc1	inactive
COc1ccc(NC(=O)CSc2nc(NS(=O)(=O)c3ccccc3)cc(=O)[nH]2)cc1	inconclusive: 39.8 µM [inhibitor, single point]
Cc1ccccc1N=C/C=C1/C=C(c2ccccc2)OC(C)(C)O1	inconclusive: 35.5 µM [inhibitor, single point]
CSc1nc2nc3c(cc2c(=O)[nH]1)C(O)Oc1ccc(C)cc1-3 (stereo not given)	inconclusive: 28.2 µM [inhibitor, partial curve]
